PubChem BioAssay AID504332 (National Center for Advancing Translational Sciences (NCATS), 2011)
Hit rate of the full screen: of about 350,000 compounds, about 31,000 (8.9%) were called active. Inconclusive means that the source gave no clear call. Such entries were picked first, then a sample of the others. Calls follow the shape of the dose curve; as a rule, active = well fitted inhibition curve with a large enough effect; inconclusive = small, poorly fitted or top-dose-only effect; inactive = no such curve, though single readings can be large or run the other way. Where the call is inconclusive, the potency comes from a doubtful curve fit.

target: Histone-lysine N-methyltransferase EHMT2 (Homo sapiens) (UniProt Q96KQ7); assay: qHTS Assay for Inhibitors of Histone Lysine Methyltransferase G9a; settings: G9a H3K9 monomethylation, AlphaScreen, 2 h; activity, negative = inhibition: at 59 µM (top of the series) unless noted; also: nearly all actives have a fitted effect of over 75% in size
Outline: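 Compounds were preincubated with 20 nM G9a for 15 min, after which biotinylated H3K9 peptide (500 nM) and SAM (20 uM) started a 2 h room-temperature reaction. Monomethylated product was quantified by antibody-based AlphaScreen chemiluminescence.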
% is scaled to controls: 0 for no effect and ±100 for the full control effect; potency is read from the fitted curve at half-maximal effect; tags tell the direction and shape of the fitted curve.

Chain of UniProt Q96KQ7 (Q96KQ7 whole entry, looked up): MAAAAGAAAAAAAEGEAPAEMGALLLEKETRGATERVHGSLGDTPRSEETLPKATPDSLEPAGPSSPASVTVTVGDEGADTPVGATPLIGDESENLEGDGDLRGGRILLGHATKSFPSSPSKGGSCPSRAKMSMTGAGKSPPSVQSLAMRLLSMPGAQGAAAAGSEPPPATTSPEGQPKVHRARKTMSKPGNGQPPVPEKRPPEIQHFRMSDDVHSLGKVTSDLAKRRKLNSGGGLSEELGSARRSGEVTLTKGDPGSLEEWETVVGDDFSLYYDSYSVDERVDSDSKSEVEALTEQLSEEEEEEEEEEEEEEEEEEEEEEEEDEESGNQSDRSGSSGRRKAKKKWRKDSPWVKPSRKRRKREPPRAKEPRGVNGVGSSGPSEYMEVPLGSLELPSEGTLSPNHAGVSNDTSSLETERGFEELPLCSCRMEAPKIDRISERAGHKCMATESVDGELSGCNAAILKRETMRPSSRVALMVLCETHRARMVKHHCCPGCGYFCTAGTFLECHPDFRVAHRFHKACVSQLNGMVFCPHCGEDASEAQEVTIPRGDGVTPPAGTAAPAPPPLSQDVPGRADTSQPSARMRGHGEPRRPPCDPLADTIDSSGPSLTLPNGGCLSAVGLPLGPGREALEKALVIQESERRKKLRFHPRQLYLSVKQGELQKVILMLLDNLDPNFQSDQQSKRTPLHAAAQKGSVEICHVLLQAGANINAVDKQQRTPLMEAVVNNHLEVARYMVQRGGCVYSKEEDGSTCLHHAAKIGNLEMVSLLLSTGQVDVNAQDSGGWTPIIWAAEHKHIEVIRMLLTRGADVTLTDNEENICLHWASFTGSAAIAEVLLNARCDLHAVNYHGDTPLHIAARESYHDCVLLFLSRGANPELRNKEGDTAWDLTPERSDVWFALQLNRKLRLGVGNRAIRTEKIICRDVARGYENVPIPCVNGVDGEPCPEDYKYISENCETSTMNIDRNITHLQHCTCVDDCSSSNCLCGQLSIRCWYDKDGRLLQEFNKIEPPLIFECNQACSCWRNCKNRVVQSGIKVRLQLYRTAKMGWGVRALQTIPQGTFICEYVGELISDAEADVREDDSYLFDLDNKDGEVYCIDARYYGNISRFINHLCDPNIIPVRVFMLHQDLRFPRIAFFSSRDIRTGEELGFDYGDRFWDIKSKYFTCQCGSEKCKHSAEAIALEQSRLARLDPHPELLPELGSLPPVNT

SMILES | Potency | activity, negative = inhibition
CN1CCN(Cc2nc3ccccc3c(=O)[nH]2)CC1 | inconclusive: 2.51 µM [inhibitor, partial curve, poor fit] | –
COc1cccc(-n2c(CN3CCN(C)CC3)nc3ccc([N+](=O)[O-])cc3c2=O)c1 | inconclusive: 7.94 µM [inhibitor, full curve, poor fit] | –
Cc1cc(/C=C2\C(=O)NC(=S)N(C)C2=O)c(C)n1C1CCCCC1 | inconclusive: 39.8 µM [inhibitor, single point] | –
CN1c2ccccc2Oc2ccccc21 | inconclusive: 39.8 µM [inhibitor, partial curve, poor fit] | –
CCCCNC(=O)Oc1cc(CCl)on1 | inconclusive: 44.7 µM [inhibitor, partial curve, poor fit] | –
COc1cc2c(cc1O)C[C@H]1NCCc3cc4c(c-2c31)OCO4 | inconclusive: 89.1 µM [inhibitor, single point] | –
O=[N+]([O-])c1c(Cl)cccc1-c1c[nH]cc1Cl | inconclusive: 3.55 µM [inhibitor, partial curve, poor fit] | –
CCN(CC)S(=O)(=O)c1ccc(C(=O)NC2CN3CCC2CC3)cc1 (configuration not stated) | – | inactive: 25.2% [at 102 µM]
O=C(Oc1ccccc1)N1CCC2(CCCN(Cc3nccs3)C2)CC1 | – | inactive: -8.08% [at 12.7 µM]
Cc1ccccc1N1C(=O)NC(=O)/C(=C/c2ccc(N3CCOCC3)o2)C1=O | inconclusive: 89.1 µM [inhibitor, partial curve, poor fit] | –
COC(=O)C1=C(c2ccc(OC(F)(F)F)cc2)C[C@@H]2CC[C@H]1N2C(=O)NC1CCCCC1 | – | inconclusive: -92.1% [inhibitor] [at 2.33 µM]
O=C(COC(=O)c1cccc(O)c1)Nc1ccc(Cl)cc1C(=O)c1ccccc1 | inconclusive: 89.1 µM [inhibitor, single point] | –
CCCCCCC1CC(C)(C(=O)CNc2nncs2)OC1=O (configuration not stated) | active: 14.1 µM | –
CN(C)C(=O)On1c(-c2ccccc2)nc2ccc(Cl)cc21 | inconclusive: 56.2 µM [inhibitor, partial curve] | –
Cc1ccc(N=C2N=C(N)c3ccccc32)c(C)c1 | inconclusive: 28.2 µM [inhibitor, single point] | –
Cc1cc(/C=C2\C(=O)NC(=O)N(Cc3ccccc3Cl)C2=O)c(C)n1-c1ccc(C(=O)O)cc1 | active: 25.1 µM | –
CNc1cc(Cl)c2nonc2c1[N+](=O)[O-] | active: 25.1 µM | –
Cc1cc(C)nc(NS(=O)(=O)c2ccc(NC(=S)NC(=O)C3CCCC3)cc2)n1 | inconclusive: 8.91 µM [inhibitor, single point] | –
Clc1cccc(CN2CCCCC2c2cccnc2)c1 (configuration not stated) | active: 56.2 µM | –
N#C/C(=C\c1ccc([N+](=O)[O-])cc1)c1nc(C2CC2)cs1 | inconclusive: 3.16 µM [inhibitor, full curve, poor fit] | –
CC(C)OC12Oc3ccccc3C=C1N1CCC2CC1 (configuration not stated) | inconclusive: 89.1 µM [inhibitor, partial curve, poor fit] | –

SMILES | Potency | activity, negative = inhibition
Cn1c(=O)c2c(nc(N/N=C/c3c(O)n(-c4ccccc4)c(=S)[nH]c3=O)n2C)n(C)c1=O | – | inactive: -6.42%
CCOc1ccc(NC(=O)c2ccc(NC(=O)COC(=O)Cc3ccccc3)cc2)cc1 | inconclusive: 39.8 µM [inhibitor, single point] | –
CCOc1ccc(NCc2cccn2-c2nnc(N3CCC(C(=O)NCc4ccc(C)cc4)CC3)s2)cc1 | inconclusive: 7.08 µM [inhibitor, partial curve, poor fit] | –
COC(=O)C1=Nc2ccccc2/C1=C\c1c(O)n(-c2cc(OC)ccc2OC)c(=O)[nH]c1=O | inconclusive: 17.8 µM [inhibitor, partial curve, poor fit] | –
CC(C)CN(CC(C)C)c1ccc(C=C2C(=O)NC(=S)NC2=O)cc1[N+](=O)[O-] | inconclusive: 10 µM [inhibitor, single point] | –
O=C(CSc1nnnn1-c1ccccc1)Nc1ccc(N2CCOCC2)c(Cl)c1 | active: 12.6 µM | –
Cc1ccc(C(=O)COC(=O)c2cccc(NC(=O)c3ccc(Br)cc3)c2)cc1 | inconclusive: 31.6 µM [inhibitor, single point] | –
CCCCc1nc2ccccc2c(=O)n1-c1cccc(OC)c1 | – | inactive: -8.08%
CN1C(=O)C(=Cc2ccc(-c3cccc(Cl)c3)o2)C(=O)N(C)C1=O | inconclusive: 11.2 µM [inhibitor, full curve, poor fit] | –
COc1ccc(C(=O)CN2CCCCC2)cc1 | inconclusive: 56.2 µM [inhibitor, partial curve, poor fit] | –
Cc1ccc(Oc2cc(NN3CCCCC3)c([N+](=O)[O-])cc2[N+](=O)[O-])c([N+](=O)[O-])c1 | inconclusive: 70.8 µM [inhibitor, single point] | –
CCOc1ccc(CNCCc2ccc3c(c2)OCO3)cc1 | – | inactive: -8.76% [at 102 µM]
C/C=C1/CN2C3CC1C(CO)(C(=O)OC)C2Cc1c3n(C)c2ccccc12 (configuration not stated) | inconclusive: 1.41 µM [inhibitor, single point] | –
Nc1c(C(=O)Nc2ccc(OC(F)(F)F)cc2)sc2nc3c(cc12)N1CCC3CC1 | – | inactive: -0.1%
CN1C[C@H](C(=O)N[C@]2(C)O[C@@]3(O)[C@@H]4CCCN4C(=O)[C@H](Cc4ccccc4)N3C2=O)C=C2c3cccc4[nH]cc(c34)C[C@H]21 | active: 12.6 µM | –
COC(=O)[C@]1(C)CC[C@@]2(C)CC[C@@]3(C)C4=CC=C5C(=CC(=O)C(O)=C5C)[C@@]4(C)CC[C@@]3(C)C2C1 (some centres not stated) | – | inconclusive: -59.2% [inhibitor] [at 2.33 µM]
CCC(Sc1ccccc1)C(=O)OC1CC2CCC(C1)N2C (configuration not stated) | – | inactive: -1.22%
CCOc1ccccc1CNCCc1ccc2c(c1)OCO2 | – | inactive: 13.2% [at 102 µM]
CCOC(=O)c1cc(CC)sc1/N=C/c1c(O)[nH]c(=S)[nH]c1=O | inconclusive: 0.158 µM [inhibitor, full curve, poor fit] | –
O=C(c1ccc2c(c1)N(Cc1ccccc1)CCS2)N1CCC2(CC1)OCCO2 | inconclusive: 89.1 µM [inhibitor, single point] | –
Cc1ccc2c(c1)CC1(CN2C)C(=O)NC(=O)N(c2cc(C)ccc2C)C1=O (configuration not stated) | active: 5.62 µM | –
